{"source": "the supplement of paper PMC9446081", "note": "In all, about 39,000 compounds went through this assay and about 220 (0.56%) showed activity. Some of the results follow.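 Further: static incubation at 37 °C against the wild-type strain, values averaged over two biological replicates.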", "data": [{"tested_on": "Escherichia coli K-12 BW25113", "assay": "relative growth (OD600 normalised to plate interquartile mean) (fraction); higher = less growth inhibition, active = 0.2 or less", "conditions": "50 µM; LB; incubation time: overnight (16-24 h)", "values": [{"smiles": "C[C@H]1CN([C@@H](C)CO)C(=O)Cc2cc(NC(=O)Nc3ccccc3)ccc2O[C@H]1CN(C)Cc1ccc(C(F)(F)F)cc1", "relative growth": "inactive: 0.978"}, {"smiles": "O=C(C[C@@H]1CC[C@@H](NC(=O)CN2CCOCC2)[C@@H](CO)O1)NCCc1ccccc1", "relative growth": "inactive: 0.966"}, {"smiles": "CC(O)(CN)CCc1ccccc1", "note": "(stereo unspecified)", "relative growth": "inactive: 1.06"}, {"smiles": "C[C@H](CO)N1C[C@H](C)[C@@H](CN(C)CC2CC2)Oc2ccc(NS(=O)(=O)c3cccs3)cc2C1=O", "relative growth": "inactive: 0.984"}, {"smiles": "CN1C(=O)c2cc(NS(=O)(=O)c3ccc(F)cc3)ccc2OC[C@@H]2O[C@H](CC(=O)NCC(F)(F)F)CC[C@H]21", "relative growth": "inactive: 0.998"}, {"smiles": "C[C@@H]1CN([C@@H](C)CO)C(=O)c2cc(NS(=O)(=O)c3ccc(F)cc3)ccc2O[C@H]1CN(C)S(=O)(=O)c1ccccc1", "relative growth": "inactive: 0.996"}, {"smiles": "CN(C)C(=O)c1ccc(-c2cccc(-c3nc(C(=O)NCc4ccccc4)cc4c3[C@@H](CCO)N([S@](=O)C(C)(C)C)C4)c2)cc1", "relative growth": "inactive: 1"}, {"smiles": "CC(C)NC(=O)Nc1ccc2c(c1)C(=O)N([C@@H](C)CO)C[C@@H](C)[C@H](CN(C)C(=O)Nc1ccc(F)cc1)OCCCC[C@H](C)O2", "relative growth": "inactive: 0.87"}, {"smiles": "Cc1ccc(S(=O)(=O)N(C)C[C@H]2Oc3ccc(NC(=O)Nc4cccc5ccccc45)cc3C(=O)N([C@H](C)CO)C[C@H]2C)cc1", "relative growth": "inactive: 0.99"}, {"smiles": "CC(C)NC(=O)Nc1ccc2c(c1)CC(=O)N([C@H](C)CO)C[C@@H](C)[C@H](CN(C)S(=O)(=O)c1ccccc1)O2", "relative growth": "inactive: 0.95"}, {"smiles": "C[C@@H]1CN([C@H](C)CO)C(=O)c2cccc(NS(=O)(=O)c3ccc(Cl)cc3)c2O[C@H]1CN(C)Cc1ccc(Cl)c(Cl)c1", "relative growth": "inactive: 1.03"}, {"smiles": "COc1ccc(CN(C)C[C@H]2OCCCC[C@H](C)Oc3ccc(NC(=O)Nc4ccccc4)cc3C(=O)N([C@H](C)CO)C[C@@H]2C)cc1", "relative growth": "inactive: 0.995"}, {"smiles": "C#Cc1ccc([C@H]2C=C(C(=O)N3CCN(Cc4ccc5c(c4)OCO5)CC3)O[C@@H](OCC)[C@@H]2CCCO)cc1", "relative growth": "inactive: 1.02"}, {"smiles": "C[N+](C)(C)CCCCCCNC(=O)[C@H]1C[C@H]2C(=O)N3CCC[C@H]3C(=O)N2[C@H]1c1cccc(OCCO)c1", "relative growth": "inactive: 0.996"}, {"smiles": "CCCNC(=O)N(C)C[C@H]1Oc2cc(C#Cc3cccc(F)c3)ccc2S(=O)(=O)N([C@@H](C)CO)C[C@@H]1C", "relative growth": "inactive: 0.997"}, {"smiles": "Cc1noc(C)c1S(=O)(=O)Nc1ccc2c(c1)CC(=O)N([C@@H](C)CO)C[C@@H](C)[C@@H](CN(C)Cc1ccccc1)O2", "relative growth": "inactive: 0.997"}, {"smiles": "CC(=O)O[C@@H]1[C@H](OC(C)=O)N(C(C)=O)C(=O)N1C(C)=O", "relative growth": "inactive: 0.852"}, {"smiles": "CC(C)C[C@H](NC(=O)[C@@H](COC(C)(C)C)NC(=O)[C@H](Cc1ccc(O)cc1)NC(=O)[C@H](CO)NC(=O)[C@H](Cc1c[nH]c2ccccc12)NC(=O)[C@H](Cc1cnc[nH]1)NC(=O)[C@@H]1CCC(=O)N1)C(=O)N[C@@H](CCCNC(=N)N)C(=O)N1CCC[C@H]1C(=O)NNC(N)=O", "relative growth": "inactive: 1.01"}, {"smiles": "COc1ccc2c3c(n(c2c1)C)[C@H](CO)N(CC1CCOCC1)C[C@]13CCN(CC1)C(=O)Cc1cccnc1", "relative growth": "inactive: 1.01"}, {"smiles": "COc1ccc(-c2cc(=O)c3c(O)c(OC)c(OC)c(OC)c3o2)cc1", "relative growth": "inactive: 0.943"}, {"smiles": "C[C@@H]1CN([C@H](C)CO)S(=O)(=O)c2ccc(C3=CCCC3)cc2O[C@H]1CN(C)S(=O)(=O)c1cn(C)cn1", "relative growth": "inactive: 1.01"}, {"smiles": "CC1(C)CC[C@]2(C(=O)O[C@@H]3O[C@H](CO)[C@@H](O)[C@H](O)[C@H]3O)CC[C@]3(C)C(=CC[C@H]4[C@@]5(C)CC[C@@H](O[C@@H]6O[C@H](C(=O)O)[C@@H](O[C@@H]7OC[C@@H](O)[C@H](O)[C@H]7O)[C@H](O[C@@H]7OC[C@](O)(CO)[C@H]7O)[C@H]6O)C(C)(C)[C@@H]5CC[C@]43C)[C@@H]2C1", "relative growth": "inactive: 1.02"}, {"smiles": "C[C@@H]1CN([C@@H](C)CO)C(=O)Cc2cc(NS(=O)(=O)c3cn(C)cn3)ccc2O[C@H]1CN(C)C(=O)Nc1ccccc1", "relative growth": "inactive: 0.986"}, {"smiles": "C[C@@H]1CCCCO[C@@H](CN(C)C(=O)Nc2cccc3ccccc23)[C@@H](C)CN([C@H](C)CO)C(=O)c2cc(NC(=O)NC3CCCCC3)ccc2O1", "relative growth": "inactive: 1.03"}, {"smiles": "CCCC#Cc1ccc2c(c1)O[C@@H](CN(C)Cc1ccc3c(c1)OCO3)[C@@H](C)CN([C@H](C)CO)S2(=O)=O", "relative growth": "inactive: 1.03"}, {"smiles": "O=c1ccoc2cc(O)c([C@H]3O[C@H](CO)[C@@H](O)[C@H](O)[C@@H]3O)c(O)c12", "relative growth": "inactive: 1.03"}, {"smiles": "C[C@H](NC(=O)N(C)C[C@H]1OCc2ccccc2-c2ccccc2C(=O)N([C@@H](C)CO)C[C@H]1C)c1ccccc1", "relative growth": "inactive: 1"}, {"smiles": "CC(C)NC(=O)N(C)C[C@H]1Oc2c(NS(=O)(=O)c3ccc(Cl)cc3)cccc2C(=O)N([C@H](C)CO)C[C@@H]1C", "relative growth": "inactive: 1"}, {"smiles": "C[C@H](CO)N1C[C@H](C)[C@@H](CN(C)S(=O)(=O)c2cn(C)cn2)Oc2cc(C#Cc3cccc(F)c3)ccc2S1(=O)=O", "relative growth": "inactive: 1.03"}, {"smiles": "CN1C(=O)[C@@H]2[C@@H](C(=O)c3ccccn3)[C@@H]2C1=O", "relative growth": "inactive: 1.04"}, {"smiles": "C[C@@H]1CN([C@H](C)CO)C(=O)Cc2cc(NC(=O)CCN3CCOCC3)ccc2O[C@@H]1CN(C)C(=O)Nc1ccccc1", "relative growth": "inactive: 0.992"}, {"smiles": "Oc1cc2c(cc1O)C1c3ccc(O)c(O)c3OCC1(O)C2", "note": "(stereo unspecified)", "relative growth": "inactive: 0.716"}, {"smiles": "O=S(=O)(NCC[C@H]1CC[C@H](NS(=O)(=O)c2cccc(Cl)c2)[C@@H](CO)O1)c1cccc(F)c1", "relative growth": "inactive: 0.978"}, {"smiles": "C[C@@H](SC(=S)N1CCOCC1)C(=O)O", "relative growth": "inactive: 1.01"}, {"smiles": "C[C@H](CO)N1C[C@H](C)[C@H](CN(C)C(=O)NC2CCCCC2)Oc2cc(-c3cccnc3)ccc2S1(=O)=O", "relative growth": "inactive: 0.985"}, {"smiles": "COc1ccc(NC(=O)Nc2ccc3c(c2)C(=O)N([C@H](C)CO)C[C@@H](C)[C@H](CN(C)Cc2ccccc2)OCCCC[C@H](C)O3)cc1", "relative growth": "inactive: 0.979"}, {"smiles": "COc1ccc(NC(=O)Nc2ccc3c(c2)C(=O)N([C@H](C)CO)C[C@@H](C)[C@@H](CN(C)S(=O)(=O)c2ccc(C)cc2)OCCCC[C@H](C)O3)cc1", "relative growth": "inactive: 1.02"}, {"smiles": "C[C@H](CO)N1C[C@H](C)[C@H](CN(C)Cc2ccncc2)Oc2ccc(NC(=O)Nc3ccc(C(F)(F)F)cc3)cc2C1=O", "relative growth": "inactive: 0.95"}, {"smiles": "C[C@@H]1CCCCO[C@H](CN(C)CC2CCCCC2)[C@@H](C)CN([C@H](C)CO)C(=O)c2cc(NC(=O)NC3CCCCC3)ccc2O1", "relative growth": "inactive: 1.02"}, {"smiles": "Cc1noc(C)c1NC(=O)Nc1ccc2c(c1)CC(=O)N([C@@H](C)CO)C[C@@H](C)[C@H](CN(C)S(=O)(=O)c1cn(C)cn1)O2", "relative growth": "inactive: 0.947"}, {"smiles": "C[C@@H]1CN([C@H](C)CO)C(=O)c2cc(NC(=O)Nc3ccc4c(c3)OCO4)ccc2O[C@@H](C)CCCCO[C@@H]1CN(C)S(=O)(=O)c1ccc(F)cc1", "relative growth": "inactive: 1.01"}, {"smiles": "C[C@H](CO)N1C[C@H](C)[C@@H](CN(C)Cc2ccc(Oc3ccccc3)cc2)Oc2c(NC(=O)C3CC3)cccc2C1=O", "relative growth": "inactive: 0.999"}, {"smiles": "COc1ccc(S(=O)(=O)N(C)C[C@H]2OCCCC[C@@H](C)Oc3ccc(NS(C)(=O)=O)cc3C(=O)N([C@@H](C)CO)C[C@@H]2C)cc1", "relative growth": "inactive: 1.02"}, {"smiles": "CCN(CC)C(=O)c1ccc(O)c(OC)c1", "relative growth": "inactive: 1.12"}, {"smiles": "C/C=C/c1ccc([C@@H]2[C@H](CO)N(S(=O)(=O)CC)C23CN(C(=O)CN(C)C)C3)cc1", "relative growth": "inactive: 0.982"}, {"smiles": "COc1cc([C@@H]2[C@H]3CO[C@@]4(O)C(=O)[C@@H]2C=C([C@H]2Oc5cc(O)cc(O)c5C(=O)[C@@H]2O)[C@@H]34)ccc1O", "relative growth": "inactive: 1.01"}, {"smiles": "COCCNC(=O)C[C@H]1C[C@@H]2c3cc(NC(=O)COC)ccc3O[C@@H]2[C@H](CO)O1", "relative growth": "inactive: 0.884"}, {"smiles": "Cc1noc(C)c1S(=O)(=O)N(C)C[C@H]1OCCCC[C@H](C)Oc2ccc(N(C)C)cc2C(=O)N([C@H](C)CO)C[C@@H]1C", "relative growth": "inactive: 1.01"}, {"smiles": "CCC1(O)CC2CN(CCc3c([nH]c4ccccc34)C(C(=O)OC)(c3cc4c(cc3OC)N(C=O)C3C(O)(C(=O)OC)C(OC(C)=O)C5(CC)C=CCN6CCC43C65)C2)C1.O=S(=O)(O)O", "note": "(stereo unspecified)", "relative growth": "inactive: 1.08"}, {"smiles": "COc1cccc(-c2cnc3c(c2)C(=O)N([C@H](C)CO)C[C@H](C)[C@H](CN(C)S(=O)(=O)c2cccc(F)c2)O3)c1", "relative growth": "inactive: 1.01"}, {"smiles": "C[C@H](CO)N1C[C@H](C)[C@H](CN(C)S(=O)(=O)c2ccc(F)cc2)OCCCC[C@H](C)Oc2ccc(NC(=O)Nc3ccc(C(F)(F)F)cc3)cc2C1=O", "relative growth": "inactive: 1.04"}, {"smiles": "CCCNC(=O)[C@@]1(Sc2ccc(C)cc2)CC(=O)N(Cc2cc(C(F)(F)F)cc(C(F)(F)F)c2)[C@@H]1c1ccc(CO)cc1", "relative growth": "inactive: 1.01"}, {"smiles": "C[C@@H]1CN([C@@H](C)CO)C(=O)c2cc(NS(=O)(=O)c3ccc(F)cc3)ccc2O[C@@H](C)CCCCO[C@@H]1CN(C)C(=O)c1ccccc1", "relative growth": "inactive: 0.987"}, {"smiles": "Cc1ccc(S(=O)(=O)N[C@H]2CC[C@@H](CC(=O)N3CCC(Cc4ccccc4)CC3)O[C@H]2CO)cc1", "relative growth": "inactive: 0.998"}, {"smiles": "CC1(C)S[C@@H]2[C@H](NC(=O)[C@H](N)c3ccccc3)C(=O)N2[C@H]1C(=O)OCOC(=O)[C@@H]1N2C(=O)C[C@H]2S(=O)(=O)C1(C)C", "relative growth": "active: 0.107"}, {"smiles": "Cc1noc(C)c1NC(=O)N(C)C[C@H]1Oc2ccc(NS(=O)(=O)c3cn(C)cn3)cc2CC(=O)N([C@H](C)CO)C[C@H]1C", "relative growth": "inactive: 1.01"}]}]}
